Test results taken from the supplement of paper PMC11369174, “Proteome-scale characterisation of motif-based interactome rewiring by disease mutations” (Molecular Systems Biology, 2024).
The list shows a part of the results. This is a noisy data set.

Assays:
Assay in all cases: mutation enrichment score (mutant vs wild-type peptide binding to bait); baits are purified protein domains named by gene / domain / UniProt id / residues; peptides come from disordered regions of human proteins; higher = mutation enhances binding relative to wild type
[1] = molecular target: NCK1_SH3_1_P16333_5_60; conditions: wild-type window: …
[2] = molecular target: Src_SH3__P12931_87_144; conditions: wild-type window: …
[3] = molecular target: NEDD4_WW_2_P46934_765_803; conditions: wild-type window: …
[4] = molecular target: WWTR1_WW__Q9GZV5_122_160; conditions: wild-type window: …
[5] = molecular target: SMURF2_WW_3_Q9HAU4_298_330; conditions: wild-type window: …
[6] = molecular target: USP7_MATH-TRAF__Q93009_53_206; conditions: number of wild-type / mutant comparisons summed (bounds the score): 5; paper call: no_effect; wild-type window: …
[7] = molecular target: T1, ZMYND11_coiled-coil-MYND__Q15326_480_602; conditions: number of wild-type / mutant comparisons summed (bounds the score): 6; paper call: no_effect; wild-type window: …
T1 chain: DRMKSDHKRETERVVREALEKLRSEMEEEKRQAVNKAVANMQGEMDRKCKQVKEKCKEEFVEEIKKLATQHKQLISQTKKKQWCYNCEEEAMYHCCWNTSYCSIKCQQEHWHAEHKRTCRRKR

[8] = molecular target: OXSR1___O95747_434_527; conditions: wild-type window: …
[9] = molecular target: PDCD6IP_Alix-V-domain__Q8WUM4_360_702; conditions: number of wild-type / mutant comparisons summed (bounds the score): 5; paper call: no_effect; wild-type window: …
[10] = number of wild-type / mutant comparisons summed (bounds the score): 6, paper call: no_effect
[11] = number of wild-type / mutant comparisons summed (bounds the score): 12, paper call: enhanced
[12] = number of wild-type / mutant comparisons summed (bounds the score): 12, paper call: no_effect
[13] = number of wild-type / mutant comparisons summed (bounds the score): 6, paper call: diminished
[14] = number of wild-type / mutant comparisons summed (bounds the score): 12, paper call: diminished
[15] = number of wild-type / mutant comparisons summed (bounds the score): 18, paper call: diminished
[16] = number of wild-type / mutant comparisons summed (bounds the score): 24, paper call: diminished

Sequence of NEDD4_WW_2_P46934_765_803 (chain, as listed by the source): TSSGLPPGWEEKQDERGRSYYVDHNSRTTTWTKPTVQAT
Sequence of WWTR1_WW__Q9GZV5_122_160 (chain, as listed by the source): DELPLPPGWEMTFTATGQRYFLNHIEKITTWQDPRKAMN
Sequence of USP7_MATH-TRAF__Q93009_53_206 (chain, as listed by the source): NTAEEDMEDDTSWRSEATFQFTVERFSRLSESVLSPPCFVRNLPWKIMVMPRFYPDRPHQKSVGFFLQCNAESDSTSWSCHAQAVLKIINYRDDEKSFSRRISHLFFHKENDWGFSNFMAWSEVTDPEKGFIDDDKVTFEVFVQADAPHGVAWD

For SGFLNNSWPLPQPPSPMPYACCQMAAAAAAAAAAAAAAGPG [S217C S217C], the mutation enrichment score [1, 10] was 0 and the mutation enrichment score [2, 10] was 0.

LQSGFLNNSWPLPQPPSPMPCASCQMAAAAAAAAAAAAAAG [Y215C Y215C] gave a mutation enrichment score [1, 11] of 6.4 and a mutation enrichment score [2, 11] of 7.

In the case of SRIQNPVAFLSSVLPSLPAITPTNAMGLPRSAPSMPSQGLA [P841T P841T], the mutation enrichment score [1, 12] is reported as -1 and the mutation enrichment score [2, 12] is reported as -2.9.

VVGFKNLALMDSSSSLSRNPSSYIAPYSCILRYAVSAALWL [P721S P721S] was tested, and the mutation enrichment score [3, 13] was -6.

With YMHKDAKKGFIRLDMSEFQEGHEVAKFIGSPPGYVGHEEGG [R417G R417G] the mutation enrichment score ([3]; number of wild-type / mutant comparisons summed (bounds the score): 6, paper call: enhanced) was 6 and the mutation enrichment score [4, 10] was 3.

Binder DSDSDTDSSQEENEVTEHTPSLRPLASVSAQSFGALSESRS [L311S L311S] has a mutation enrichment score [3, 10] of -2.

With SDSDTDSSQEENEVTEHTPLPRPLASVSAQSFGALSESRSH [L312P L312P] the mutation enrichment score [3, 10] was -2.

TKQKEFFDVWPVLMGEVPPYCGPRTPDGREINFYKVIDYIL [S303C S303C] was tested, and the mutation enrichment score [3, 10] was -3, the mutation enrichment score [5, 10] was -5 and the mutation enrichment score [4, 10] was -1.

In the case of QVLTVLFFLEVVGFKNLALMASSSSLSRNPPSYIAPYSCIL [D711A D711A], the mutation enrichment score [3, 10] is reported as -2.8 and the mutation enrichment score [6] is reported as 2.6.

Work on SSAVSASGSTSSQGDQSNPAKSPFSPHASPHLSSIPGGPSP [Q704K Q704K] yielded a mutation enrichment score [3, 10] of -4.

With QQHTGPAGTMVPPSYSSQPYHSTHPSTNPTLVDPTRHLQQR [Q1974H Q1974H] the mutation enrichment score [3, 10] was 0.25 and the mutation enrichment score [5, 10] was 0.12.

Binder VNSYYPTPPAPMPGPTTGLVMGPDGKGMNPPSYYTQPAPIP [T49M T49M] has a mutation enrichment score [3, 10] of 0.66 and a mutation enrichment score [4, 10] of 0.46.

Work on GGLLNNPLSAATGNTTTASSPGEPEDSTSKGEEKGNENEDE [Q2833P Q2833P] yielded a mutation enrichment score [3, 10] of -4.

In the case of FYIGWGHKYSPDNYTPPVPPSVYQEYPSGPEITEMDDPSVE [P664S P664S], the mutation enrichment score [3, 14] is reported as -8, the mutation enrichment score [5, 12] is reported as -3 and the mutation enrichment score [4, 14] is reported as -7.

SAPPLSHTPSSDFQPPYFPPRYQPLPYHQSQDPYSHVNDPY [P73R P73R] gave a mutation enrichment score [3, 14] of -12, a mutation enrichment score [5, 14] of -9 and a mutation enrichment score [4, 14] of -7.

For HGKEDIKVIPNPPPDHWALVRGLPAYVAQNGLICNIMNAPA [S344R S344R], the mutation enrichment score [3, 12] was -4, the mutation enrichment score [5, 14] was -12 and the mutation enrichment score [4, 14] was -7.9.

FSSASAPDQSAPPSLGHAHSKGPAPAYVASGPFREAGFPGQ [E113K E113K] was tested, and the mutation enrichment score [3, 12] was -1.4, the mutation enrichment score [5, 14] was -9.9 and the mutation enrichment score [4, 12] was 0.53. The mutation enrichment score [7] was -3.

Work on PRSPNTGPYPSEQALPIPGTRPPNYDSLRLQPLDVIESDSE [P616R P616R] yielded a mutation enrichment score [3, 15] of -12, a mutation enrichment score [5, 10] of -1 and a mutation enrichment score [4, 13] of -6.

PRSPNTGPYPSEQALPIPGTSPPNYDSLRLQPLDVIESDSE [P616S P616S] gave a mutation enrichment score [3, 15] of -12, a mutation enrichment score [5, 10] of 2.2 and a mutation enrichment score [4, 10] of -5.8.

Binder PRSPNTGPYPSEQALPIPGTLPPNYDSLRLQPLDVIESDSE [P616L P616L] has a mutation enrichment score ([3]; number of wild-type / mutant comparisons summed (bounds the score): 18, paper call: no_effect) of -5.3, a mutation enrichment score [5, 12] of 5 and a mutation enrichment score [4, 12] of -5.

RSPNTGPYPSEQALPIPGTPSPNYDSLRLQPLDVIESDSEG [P617S P617S] gave a mutation enrichment score [3, 16] of -16, a mutation enrichment score [5, 12] of -2 and a mutation enrichment score [4, 13] of -6.

Work on SPNTGPYPSEQALPIPGTPPRNYDSLRLQPLDVIESDSEGD [P618R P618R] yielded a mutation enrichment score [3, 16] of -16, a mutation enrichment score [5, 12] of -2 and a mutation enrichment score [4, 13] of -6.

NTGPYPSEQALPIPGTPPPNHDSLRLQPLDVIESDSEGDAI [Y620H Y620H] showed a mutation enrichment score [3, 16] of -16, a mutation enrichment score [5, 12] of -2 and a mutation enrichment score [4, 13] of -6.

For TKKQPTGASLVLQVSYTPLPEAVPLFPPPTPLEPSPTLPDL [G128E G128E], the mutation enrichment score [8, 10] was -1.

For KSVSEGHLKRNIVVKTVEMRAGEVIKESKQEHKDVM [D417A D417A], the mutation enrichment score [8, 10] was -1.9.

With LQIRETSLDTKSVSEGHLKRIIVVKTVEMRDGEVIKESKQE [N407I N407I] the mutation enrichment score [8, 10] was -2.

Binder TKSVSEGHLKRNIVVKTVEMGDGEVIKESKQEHKDVM [R416G R416G] has a mutation enrichment score [8, 10] of -2.

Work on TKSVSEGHLKRNIVVKTVEMWDGEVIKESKQEHKDVM [R416W R416W] yielded a mutation enrichment score [8, 10] of -1.8.

Work on TSVVDSEPVRFTVKVTGEPKTEITWWFEGEILQDGEDYQYI [P611T P611T] yielded a mutation enrichment score [8, 10] of -3.6.

Work on QGTGRPGQPPGPKVLRKLPGWLVTVVEEKELVRRRRQQRGA [R2753W R2753W] yielded a mutation enrichment score [8, 10] of 2.

For REDFRSVLRRAPEPRPEFHVREPGKLQFEVQKVDRPVDTTE [H1952R H1952R], the mutation enrichment score [8, 10] was 2.3.

In the case of PTKIREYTLTHLPQGAEYRFHVLACNAGGPGEPAEVPGTVK [R31033H R31033H], the mutation enrichment score [8, 10] is reported as 3.

For PEVTWSCGGRKIHSQEQGRFPIENTDDLTTLIIMDVQKQDG [H34305P H34305P], the mutation enrichment score [8, 14] was -11.

EVTWSCGGRKIHSQEQGRFHNENTDDLTTLIIMDVQKQDGG [I34306N I34306N] was tested, and the mutation enrichment score [8, 14] was -11.

EVTWSCGGRKIHSQEQGRFHSENTDDLTTLIIMDVQKQDGG [I34306S I34306S] was tested, and the mutation enrichment score [8, 14] was -11.

In the case of EVTWSCGGRKIHSQEQGRFHTENTDDLTTLIIMDVQKQDGG [I34306T I34306T], the mutation enrichment score [8, 14] is reported as -11.

SAQSAESSSVAMTPTYMDSPGKDGAFFMEFVRSPRTASSAF [R1087G R1087G] gave a mutation enrichment score [8, 12] of 2 and a mutation enrichment score [6] of 4.

MAAASYDQLLKQVEALKMENLNLRQ [S5L S5L] was tested, and the mutation enrichment score [9] was 3.

EGPTGLKEAALYPHLPPEADLRLIESLSQMLSMGFSDEGGW [P392L P392L] gave a mutation enrichment score [9] of 5.
